Assay results published in the RNAGym collection of RNA variant scans (doi:10.1101/gad.245936.114).
Variants at the floor of the assay are shown more often than the library holds them.

B1: tRNA (parent)
chain: CUCUCGGUAGCCAAGUUGGUUUAAGGCGCAAGACUUUAAUUUAUCACUACGAAAUCUUGAGAUCGGGCGUUCGACUCGCCCCCGGGAGAUUUUUUCCUCGAGCAA

Variants of: B1
Assay: nonsense suppression (GFP-seq) (ratio to wild type); higher = more function; SUP4oc tRNA, yeast GFP reporter sort-seq
How it was run: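 Yeast carrying genome-integrated SUP4oc tRNA variants from a library with ~3% random mutations were grown in raffinose/galactose medium with 80 mg/L adenine. Each strain also carried a galactose-driven GFP ochre reporter and RFP. Cells were sorted into GFP/RFP bins, and each bin was Illumina-sequenced (phred ≥30). Nonsense suppression (GFPSEQ) is the bin median GFP/RFP, weighted by each variant's estimated cell share per bin, relative to wild-type SUP4oc; variants needed ≥100 reads and ≥30 cells.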

Q: For CUCUCGGUAGCCAAGUUGAUUUAAGGCGCAAGACUUUAAUUUAUCACUACGAAAUCCUGAAAUCGGGCGUUCGACUCGCCCCCGGGAGAUUUUUUCCUCGAGCAA [G19A U57C G61A], which nonsense suppression is on record?
A: ≤ 0.026

Q: With CUCUCGGUAGCCAAGUUGACUUAAGGCGCAAGACUUUAAUUUAUCACUACGAAAUCUUGAGAUCUGGCCUUCGACUCGCCCCCGAGAGAUUUUUUCCUCGAGCAA [G19A U20C G65U G69C G85A] as the variant, how does the nonsense suppression read?
A: ≤ 0.026

Q: Which nonsense suppression does the source give for CUCUCGGUAGCCAAGUUGCUUUACGGCGCAAGACUUUAAUUUAUCACUACGAAAUCUUGAGAUCGGGCGUUCGACUCGCCCCCGGGAGAUUUUUUCCUCGAGCAA [G19C A24C] here?
A: ≤ 0.026

Q: With CUCUCGGUAGCCAAGUUGCUUUAGGGCGCAAGACUUUAAUUUAUCACUACGAAAUCUUGAGAUCGGGCGUUCGACUCGCCCCCGGGAGAUUUUUUCCUCGAGCAA [G19C A24G] as the variant, how does the nonsense suppression read?
A: ≤ 0.026

Q: With CUCUCGGUAGCCAAGUUGCUUUAAGGCGCAAGACUUUAAUUUAUCACUACGAAAUCUUGAGAUCGGGCGUUCGACUAGCCCCCGGGAGAUUUUUUCCUCGAGCAA [G19C C77A] as the variant, how does the nonsense suppression read?
A: ≤ 0.026

Q: For CUCUCGGUAGCCAAGUUGAUUUAAGGCGCAAUAGUUUAAUUUAUCACUACGAAAUCUUGAGAUCGGGCGUUCGACUCUCCCCCGGCAGAUUUUUUCCUCGAGCAA [G19A G32U C34G G78U G86C], which nonsense suppression is on record?
A: ≤ 0.026

Q: Which nonsense suppression does the source give for CUCUCGGUAGCCAAGUUGCUUUAAGGCGCUAGACUUUAAUUUAUCACUACGAAAUCUUGAGAUCGGGCGUUCGACUCGCCCCCGUGGGAUUUUUUCCUCGAGCAA [G19C A30U G85U A87G] here?
A: ≤ 0.026

Q: With CUCUCGGUAGCCAAGUUGCUUUAAGGCGCGAGACUUUAAUUUAUCACUACGAAAUCUUGAGAUCGGGCGUUCGAGUCGCCCCCGGGAGAUUUUUUCCUCGAGCAA [G19C A30G C75G] as the variant, how does the nonsense suppression read?
A: ≤ 0.026

Q: Which nonsense suppression does the source give for CUCUCGGUAGCCAAGUUGAUUUAAGGCGCAAGACUUUAAUUUAUCACUACGAAAUCUUAAGAUCGGGCGUUCGACUCGCCCCCGGGGGUUUUUUUCCUCGAGCAA [G19A G59A A87G A89U] here?
A: ≤ 0.026

Q: With CUCUCGGUAGCCAAGUUGAUUUAAGGCGCAAGAGUUUAAUUUAUCACUACGAAAUCUUGAGAUCGGGCGUUCGACUCGCCCCCGGGAGAUUUUUUCCUCGAGCAA [G19A C34G] as the variant, how does the nonsense suppression read?
A: ≤ 0.026

Q: For CUCUCGGUAGCCAAGUUGCUUUAAGGGGCUAGACUUUAAUUUAUCACUACGAAACCUUGAGAUCGGGCGUUCGACUCGCCCCCGGGAGAUUUUUUCCUCGAGCAA [G19C C27G A30U U55C], which nonsense suppression is on record?
A: ≤ 0.026

Q: For CUCUCGGUAGCCAAGUUGAUUUAAGGCGCAAGACUUUAAUUUAUCACUACGAAAUCUUAAGAUCGGGCGUUCGACUCGCCCCCGGGAGAUUUUUUCCUCGAGCAA [G19A G59A], which nonsense suppression is on record?
A: ≤ 0.026

Q: With CUCUCGGUAGCCAAGUUGAUUUAAGGCGCAAGACUUUAAUUUAUCACUACGAAAUCUAGAGAUCGGGCGUUCGACUCGCCCCCGGGAGAUUUUUUCCUCGAGCAA [G19A U58A] as the variant, how does the nonsense suppression read?
A: ≤ 0.026

Q: For CUCUCGGUAGCCAAGUUGCUUUAAGGCGCAAGAUUUUAAUUUAUCACUACGAAAUCUUGAGAUCGGGCGUCCGACUCGCCCGCGGGAGAUUUUUUCCUCGAGCAA [G19C C34U U71C C82G], which nonsense suppression is on record?
A: ≤ 0.026

Q: For CUCUCGGUAGCCAAGUUGAUUUAAGUGGCAAGACUUUAAUUUAUCACUACGAAAUCUUGAGAUCGGGCGUUCGACUCGCCCCCGGGAGAUUUUUUCCUCGAGCAA [G19A G26U C27G], which nonsense suppression is on record?
A: ≤ 0.026

Q: With CUCUCGGUAGCCAAGUUGAUUUAAGGCGCAAGACUUUAAUUUAUCACUACGAAAUCUUGAGAGCGGGCGUUCGACUCGCCCCCGGGAGAUUUUUUCCUCGAGCAA [G19A U63G] as the variant, how does the nonsense suppression read?
A: 0.143

Q: Which nonsense suppression does the source give for CUCUCGGUAGCCAAGUUGCUUUAAGGCGCACGACUUUAAUUUAUCACUACGAAAUCUUGAGAUCGGGCGUUCGACUCGCCCCCGGGAGAUUUUUUCCUCGAGCAA [G19C A31C] here?
A: ≤ 0.026

Q: Which nonsense suppression does the source give for CUCUCGGUAGCCAAGUUGAUAUCAGGCGCAAGACUUUAAUUUAUCACUACGAAAUCUUGAGAUCGGGCGUUCGACUCGCCCCCGGGAGAUUUUUUCCUCGAGCAA [G19A U21A A23C] here?
A: ≤ 0.026

Q: For CUCUCGGUAGCCAAGUUGCUUUAAGGCGCAAGACUUUAAUUUAUCACUACGAAAUCUUGAGAUGGGGCGUUCGACUCGCCCCCGGGAGAUUUUUUCCUCGAGCAA [G19C C64G], which nonsense suppression is on record?
A: ≤ 0.026

Q: With CUCUCGGUAGCCAAGUUGCUUUAAAGCGCAAGACUUUAAUUUAUCACUACGAAAUCUUGAGAUCGGGCGUUCGACUCGUCCCCGGGAGAUUUUUUCCUCGAGCAA [G19C G25A C79U] as the variant, how does the nonsense suppression read?
A: ≤ 0.026

Q: For CUCUCGGUAGCCAAGUUGCUUUAAGGCGCAAGACUUUAAUUUAUCACUACGAAAUAUUGAGAUCGGGCGUGCGGCUCGCCCCCGGGAGAUUUUUUCCUCGAGCAA [G19C C56A U71G A74G], which nonsense suppression is on record?
A: ≤ 0.026

Q: With CUCUCGGUAGCCAAGUUGCUUUAAGGGGCAAGACUUUAAUUUAUCACUACGAAAUCUUGAGAUCGGGCGUUUGCCUCGCCCCCGGGAGAUUUUUUCCUCGAGCAA [G19C C27G C72U A74C] as the variant, how does the nonsense suppression read?
A: ≤ 0.026

Q: With CUCUCGGUAGCCAAGUUGAAUUAAGGCGCAAGACUUUAAUUUAUCACUACGAAAUCUUGAGAACGGGCGUUCGACUCGCCCCCGGGAGAUUUUUUCCUCGAGCAA [G19A U20A U63A] as the variant, how does the nonsense suppression read?
A: ≤ 0.026

Q: With CUCUCGGUAGCCAAGUUGAUUUAAGGCGCAAGACUUUAAUUUAUCACUACGAAAUCUUGAGAUCGGGCGAUCGACUCGCCCCUGGGAGAUUUUUUCCUCGAGCAA [G19A U70A C83U] as the variant, how does the nonsense suppression read?
A: ≤ 0.026

Q: For CUCUCGGUAGCCAAGUUGCUUUAAGGCGCUAGACUUUAAUUUAUCACUACGAAACCUUGAGAUCGGGCGUUCGACUCGCCCCCGCGAGAUUUUUUCCUCGAGCAA [G19C A30U U55C G85C], which nonsense suppression is on record?
A: ≤ 0.026

Q: With CUCUCGGUAGCCAAGUUGAUUUAAGGCGCAAGACUUUAAUUUAUCACUACGAAAUCUUGAGAUCGGGCGUUCGACUCGUCCCCGGGAGAUUUUUUCCUCGAGCAA [G19A C79U] as the variant, how does the nonsense suppression read?
A: ≤ 0.026

Q: With CUCUCGGUAGCCAAGUUGAUUUAAGGCGCAAGACUUUAAUUUAUCACUACGAAAUCUUGAUAUAGGGCGUUCGACUCGCCCCCGGGAGAUUUUUUCCUCGAGCAA [G19A G61U C64A] as the variant, how does the nonsense suppression read?
A: ≤ 0.026
